# Source: PubChem BioAssay AID504832 (National Center for Advancing Translational Sciences (NCATS), 2011)
# Among all 310,000 compounds or so, about 18,000 (5.8%) were called active. Inconclusive means that the source gave no clear call. Such entries were picked first, then a sample of the others. The call rests on the fitted dose curve; in most records, active means well fitted inhibition curve with a large enough effect; inconclusive means small, poorly fitted or top-dose-only effect, or another doubt; inactive means no such curve, though single readings can be large or run the other way. Potencies of inconclusive entries are left out as doubtful fits.
# Experiment: Primary qHTS for delayed death inhibitors of the malarial parasite plastid, 48 hour incubation
# Conditions: P. falciparum luciferase growth in erythrocytes; series mostly up to 28.7 µM; activity change, negative = inhibition: at the top concentration
# Procedure, shortened: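 First compound was added to culture medium, then infected red cells at 0.1% parasitemia and 2% hematocrit (final). After incubation at 37 C under 5% CO2, luciferase detection reagent was dispensed and light output recorded.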
# On the % scale 0 is the no-effect control and ±100 the full control effect; potency means the concentration at half of the fitted maximal effect; tags describe the fitted curve by direction and shape.
SMILES,Potency,"activity change, negative = inhibition"
Clc1nc(-c2ccccn2)nc2scc(-c3ccccc3)c12,"inconclusive [inhibitor, partial curve]",
CCOc1ccc(NC(=O)CN(C)C(=O)c2cc(C3CC3)nn2-c2ccccc2)cc1OCC,"inconclusive [inhibitor, partial curve]",
Cc1ccc2c(c1)C1CN(C)CCC1N2C(=O)CCCN1C(=O)c2cccc3cccc(c23)C1=O (configuration not stated),active: 1.85 µM,
CN1CCC(N(C)C(=O)CNC(=O)c2ccc(C(C)(C)C)cc2)CC1,,inactive: 15.4%
CCCCCn1c(=NC(C)=O)c(C#N)cc2c(=O)n3ccccc3nc21,"inconclusive [inhibitor, full curve, poor fit]",
CCOc1ccc(NC(=O)C2CCCN(c3c(CC)c(C)nc4ncnn34)C2)cc1 (configuration not stated),"inconclusive [inhibitor, single point]",
COc1ccc(-n2nc(C(=O)N3CCC(N4CCCCC4)CC3)c3c4ccccc4n(C)c3c2=O)cc1,"inconclusive [inhibitor, single point]",
COc1ccc2nc(NC(=O)C3CCCN(S(=O)(=O)c4c(C)noc4C)C3)sc2c1 (configuration not stated),"inconclusive [inhibitor, single point]",
Cc1nn(Cc2ccc(Cl)cc2)c(C)c1NC(=O)c1c(-c2ccccc2)noc1C,"inconclusive [inhibitor, partial curve, poor fit]",
COC(=O)c1ccccc1NC(=S)NC(NC(=O)c1ccccc1[N+](=O)[O-])C(Cl)(Cl)Cl (configuration not stated),,inactive: 4.71%
Fc1ccc2nc3n(c2c1F)CCCCCC3,,inactive: -9.21%
CCOC(=O)/C(=C\C=C\c1ccccc1)NC(=O)c1ccccc1,,inactive: 21.5%
CCN(CCCNC(=O)CNC(=O)c1nn(-c2ccc(OC)cc2OC)c(=O)c2ccccc12)c1cccc(C)c1,"inconclusive [inhibitor, partial curve, poor fit]",
O=C(/C=C/c1ccc(Cl)c(Cl)c1)NC1=NCCS1,,inactive: 20.9%
S=C(NCCCN1CCOCC1)N1CCN(c2nc(-c3ccccc3)cs2)CC1,"inconclusive [inhibitor, single point]",
O=C(c1ccc(Cl)cc1)[C@@H]1[C@@H]2C(=O)N(c3ccccc3)C(=O)[C@@H]2C2c3ccccc3C=NN21 (some centres not stated),,inactive: 18.8%
COc1cccc(/C=C2\SC(N3CCC(C)CC3)=NC2=O)c1OC,"inconclusive [inhibitor, partial curve]",
CCOc1cc(N2CCOCC2)c(OCC)cc1NC(=O)c1nc2nccc(C)n2n1,"inconclusive [inhibitor, full curve]",
COc1ccc(C)cc1NC(=O)C(OC(=O)c1cc(C)oc1C)c1ccccc1 (configuration not stated),"inconclusive [inhibitor, single point]",
CCOC(=O)C/C(C)=N\Nc1ccc([N+](=O)[O-])cc1[N+](=O)[O-],"inconclusive [inhibitor, partial curve, poor fit]",
COc1ccccc1NS(=O)(=O)c1cccc(C(=O)N/N=C/c2c(C)nn(-c3ccccc3)c2N2CCCC2)c1,"inconclusive [inhibitor, single point]",
O=C1N(CCCN2C(=O)C3(OCCO3)c3ccccc32)c2ccccc2C12OCCO2,"inconclusive [inhibitor, partial curve]",
Cc1ccccc1Cn1nc(C)c(NC(=O)c2cc3n(n2)C(C(F)F)CC(C(F)F)N3)c1C (configuration not stated),"inconclusive [inhibitor, single point]",

SMILES,Potency,"activity change, negative = inhibition"
Nc1nncn1C(=O)CCc1ccccc1,,inactive: 14.5%
COc1ccccc1OCCSc1nnc(CNC(=O)c2ccco2)n1C,"inconclusive [inhibitor, partial curve, poor fit]",
Cc1ccc(-c2c[n+](CC(=O)Nc3c(C)cccc3C)c3n2CCC3)cc1,"inconclusive [inhibitor, single point]",
COc1ccc(OC)c(NC(=O)c2nnn(Cc3ccccc3C)c2N)c1,active: 11.7 µM,
CCCc1ccc(C(=O)Cn2nc(C(=O)O)c3ccccc3c2=O)cc1,"inconclusive [inhibitor, full curve, poor fit]",
COc1cc(SC)ccc1C(=O)N1CCCCCC1,"inconclusive [inhibitor, single point]",
Cn1c(SC/C=C/c2ccccc2)nnc1-c1cnccn1,"inconclusive [inhibitor, single point]",
Cc1onc(-c2ccccc2Cl)c1C(=O)Nc1ccc(Br)cc1,"inconclusive [inhibitor, single point]",
CC(=O)Nc1ccc(NC(=O)CSc2nnc(NC(=O)C3CC3)s2)cc1,,inactive: 0%
O=C(CSc1nnnn1C1CCCCC1)Nc1cccc(NC(=O)c2ccco2)c1,"inconclusive [inhibitor, single point]",
NC(=S)c1ncc(C(F)(F)F)cc1Cl,,inactive: 13.2%
CC(=O)Nc1ccc(NC(=O)C(C)Oc2ccc(Cl)cc2Cl)cc1 (configuration not stated),"inconclusive [inhibitor, single point]",
COc1ccccc1CC(=O)Nc1cc(S(=O)(=O)N2CCOCC2)ccc1N1CCOCC1,"inconclusive [inhibitor, partial curve]",
CCN(CC)S(=O)(=O)c1ccc(N2CCN(CCO)CC2)nc1,,inactive: -1.65%
Cc1ccc(OCC(=O)NN=C2C3CC4CC(C3)CC2C4)cc1,"inconclusive [inhibitor, single point]",
O=C(COC(=O)C1(c2ccc(Cl)cc2)CCCC1)N1CCc2ccccc21,"inconclusive [inhibitor, single point]",
CCOc1ccc(NC(=S)N=Nc2c(O)[nH]c3ccccc23)cc1,"inconclusive [inhibitor, partial curve, poor fit]",
CCOc1ccccc1OCC(=O)OCC(=O)c1c(C)[nH]c2ccccc12,"inconclusive [inhibitor, single point]",
Cc1sc2nc[nH]c(=S)c2c1-c1ccccc1,,inactive: 7.16%
O=C(Nc1cccnc1)C1CCCN1S(=O)(=O)c1ccc(Cl)c(Cl)c1 (configuration not stated),"inconclusive [inhibitor, single point]",
Cc1ccc(/C=N/NC(=O)Cc2ccc(Cl)cc2)s1,"inconclusive [inhibitor, full curve]",
Cc1nnc2sc(SCc3ccccc3)nn2c1=O,active: 10.4 µM,
C#CCNC(=O)C1=C[C@H](c2csc3ccccc23)C[C@H](OCCCCO)O1,"inconclusive [inhibitor, partial curve, poor fit]",

SMILES,Potency,"activity change, negative = inhibition"
Cc1ccc(NC(=O)NC2(C(=O)NCc3ccccc3)CCCCC2)cc1,"inconclusive [inhibitor, single point]",
CCCC(=O)Nc1ccc(NCc2ccc(C)s2)cc1,"inconclusive [inhibitor, single point]",
CCC1CN(C(=O)NCc2ccc(C)cc2)c2cc(C)ccc2O1 (configuration not stated),"inconclusive [inhibitor, partial curve]",
COc1cc(O)c(C(CCN2CCN(c3ccccc3)CC2)c2ccc3c(c2)OCO3)c(OC)c1 (configuration not stated),active: 0.828 µM,
Cc1ccc(NC(=O)c2oc3ccccc3c2NC(=O)C2CCCO2)cc1C (configuration not stated),"inconclusive [inhibitor, partial curve, poor fit]",
O=C(Cn1nc(C(F)(F)F)c2c1CCCC2)NCCN1CCOCC1,active: 11.7 µM,
Cc1nnnn1/C(=C\c1ccccc1)C(=O)OCC(=O)NC(C)(C)C,"inconclusive [inhibitor, single point]",
COc1ccc(NCC(=O)Nc2cc(S(=O)(=O)N3CCOCC3)ccc2N2CCOCC2)c(OC)c1,"inconclusive [inhibitor, partial curve]",
Cc1cc(NC(=O)CCC(=O)N(Cc2ccco2)C2(C(=O)NC3CCCC3)CCC(C)CC2)no1 (configuration not stated),active: 14.7 µM,
CCOC(=O)c1c(NC(=S)NNS(=O)(=O)c2ccc(Br)cc2)sc2c1CCCCC2,"inconclusive [inhibitor, single point]",
CCC1=C(OC(=O)N(CC)CC)N2C(=O)OC(=NCC3CC3)[C@]2(Cc2ccccc2)[C@H]2C1=CC[C@H]1C(=O)N(CC(=O)OC)C(=O)[C@H]12,active: 5.86 µM,
COc1ccc(Cl)cc1NC(=O)CC(C)=O,"inconclusive [inhibitor, single point]",
Cc1ccc(NS(=O)(=O)c2c(C)nc3sccn3c2=O)cc1,,inactive: -3.81%
C#CCOn1c(-n2nc(C)cc2C)nc2ccccc2c1=O,,inactive: 2.54%
Cc1[nH]c2ccccc2c1C1C(c2ccccc2)=NN=C(C(C)C)N1O (configuration not stated),"inconclusive [inhibitor, single point]",
c1ccc(CCCCN2C(Nc3ccccc3)=NC[C@@H]2Cc2ccccc2)cc1,"inconclusive [inhibitor, single point]",
CSCCC(NC(=O)c1ccccc1Br)C(=O)NCC1CCCCC1 (configuration not stated),,inactive: -7.9%
COc1ccc(/C=C2\SC(=N)N(c3ccc(F)cc3)C2=O)cc1OC,"inconclusive [inhibitor, full curve]",
Cc1cccc(CN2CCSc3sccc3C2=O)c1,"inconclusive [inhibitor, full curve]",
CCOC(=O)N1CCN(C(=O)c2cc3cc(C)ccc3[nH]2)CC1,,inactive: -2.77%
CC1(C)CC(=O)C=C(c2ccc(F)cc2OCc2ccccc2)C1,"inconclusive [inhibitor, single point]",
